Out of some 280,000 compounds screened, about 820 (0.29%) were called active. Inconclusive means that the source gave no clear call. Such entries were picked first, then a sample of the others. Calls follow the shape of the dose curve; as a rule, active = well fitted curve in either direction with a large enough effect; inconclusive = small, poorly fitted or top-dose-only effect; inactive = flat fitted curve, though single readings scatter. No potency is given beside an inconclusive call; the fits are too rough.
Experiment: Total Fluorescence Counterscreen for Inhibitors of the Interaction of Thyroid Hormone Receptor and Steroid Receptor Coregulator 2
Conditions: TRb/SRC2 Texas Red total fluorescence interference; series mostly up to 106 µM; fluorescence change, negative = quenching: at the top concentration
Outline: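 Human TRβ ligand-binding domain (0.6 uM) and Texas Red SRC2 peptide (20 nM) in Tris buffer with 1 uM T3 and 5% DMSO were incubated with pinned compound for 5 hr at ambient temperature. Total fluorescence was computed as S + 2P (555/632 nm).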
% is scaled to controls: 0 for no effect and ±100 for the full control effect; potency is read from the fitted curve at half-maximal effect; tags tell the direction and shape of the fitted curve or compound fluorescence and quenching.

Compound	Potency	fluorescence change, negative = quenching
CCN(CC)c1ccc2nc3c(=O)n(C)c(=O)n(C)c3nc2c1	active: 22.4 µM [fluorescent]	–
O=[N+]([O-])c1c(NCCCO)cc(Sc2nc3ccccc3s2)c2nonc12	–	inactive: -9.97%
O=C(O)c1ccc(Nc2ncnc3scc(-c4ccccc4)c23)cc1	inconclusive [rising, single point]	–
COc1ccc(Cc2c(C)nn(-c3nc(C)c(C(=O)Nc4cccc(C(C)=O)c4)s3)c2C)cc1	inconclusive [falling, full curve, poor fit]	–
C=CCNC(=S)N/N=C/c1ccc(OCc2ccccc2)cc1	inconclusive [fluorescent, partial curve]	–
O=C(NCCCn1ccnc1)c1cc2ccccc2oc1=O	inconclusive [falling, full curve, poor fit]	–
COc1ccc(-c2[nH]ncc2Oc2ccccc2OC)c(O)c1	–	inactive: -2.73%
CCOc1ccccc1CNC(=O)CN1C(=O)c2cccnc2Oc2ccc(C)cc21	active: 22.4 µM [quencher]	–
CCCCN(CC)CCCNC(=O)c1nn(-c2ccc(OC)cc2)c(=O)c2c1c1ccccc1n2C	–	inactive: 0.211%
Cc1ccc(NC(=S)N2CCN(Cc3ccccc3)CC2)c(C)c1	inconclusive [falling, partial curve, poor fit]	–
Cc1cc2oc(C(=O)Nc3sc4c(c3C(=O)NCC3CCCO3)CCCC4)cc(=O)c2cc1C (stereo unspecified)	inconclusive [falling, partial curve, poor fit]	–
Cc1ccc(Sc2cc(NCCCO)c([N+](=O)[O-])c3nonc23)cc1	–	inactive: -2.63%
CCc1ccc2occ(CC(=O)Nc3c(C(=O)c4ccc(F)cc4)oc4ccccc34)c2c1	inconclusive	–
CC(C)(C)C1CCc2c(sc(NC(=O)c3cc(-c4ccc(F)cc4)on3)c2C#N)C1 (stereo unspecified)	inconclusive [falling, full curve, poor fit]	–
COCCN(Cc1ccc(C)c(Br)c1)S(=O)(=O)c1ccc2[nH]c(=O)ccc2c1	inconclusive [falling, full curve, poor fit]	–
CCOC(=O)c1ccc(NC(=O)c2cc(=O)c3ccc(C)c(C)c3o2)cc1	inconclusive [quencher, full curve]	–
CCn1c(C)nc2cc(C(=O)NNC(=O)CCC3CCCCC3)ccc21	active: 3.55 µM [quencher]	–
CCCSc1nnc(NC(=O)c2cc(=O)c3ccccc3o2)s1	inconclusive [falling, full curve, poor fit]	–
CCCN1CCN(CCCNC(=O)c2cc3c(s2)-c2c(C)cccc2OC3)CC1	–	inactive: -79.4% [at 53 µM]
Cc1nn(C)c2c1c(C(F)(F)F)cc(=O)n2CC(=O)Nc1ccc(F)cc1F	inconclusive [falling, full curve, poor fit]	–
Cc1ccccc1NC(=O)c1c(C)oc2ccc(O)c(CN(C)Cc3ccccc3)c12	inconclusive [falling, full curve, poor fit]	–
COc1cccc(CNC(=O)CN2C(=O)CCCc3ccccc32)c1OC	active: 20 µM [quencher]	–

Compound	Potency	fluorescence change, negative = quenching
CCN(c1ncnc2c1cnn2-c1cc(Cl)ccc1C)C1CCCCC1	–	inactive: -0.913%
COc1cccc(-n2cc(C(=O)Oc3cccc(C(F)(F)F)c3)c3ccccc3c2=O)c1	inconclusive [falling, full curve, poor fit]	–
Cc1cc(N)ccc1N1CCCC1	active: 44.7 µM [fluorescent]	–
COc1ccc(S(=O)(=O)n2nc(C)c(S(=O)(=O)N3CCCCCC3)c2C)cc1OC	inconclusive [falling, partial curve, poor fit]	–
CCOC(=O)c1ccc(NC(=O)C2CCN(C(=O)N3CC(C)Oc4ccc(C)cc43)CC2)cc1 (stereo unspecified)	inconclusive [quencher, partial curve]	–
COc1ccc(Oc2nc3c(c(=O)n(C)c(=O)n3C)n2Cc2ccccc2Cl)cc1	inconclusive [falling, full curve, poor fit]	–
COc1ccc(-c2noc(N3CCN(c4cccc(Cl)c4)CC3)n2)cc1OC	inconclusive [quencher, full curve]	–
COc1ccc(NC(=O)CC2S/C(=N\c3nccs3)N(C)C2=O)cc1 (stereo unspecified)	inconclusive [rising, single point]	–
Cc1ccc(CN(C(=O)COc2ccc(Cl)c(C)c2)c2ccccn2)o1	inconclusive [falling, full curve, poor fit]	–
CCOC(=O)C1=C(C)OC(N)=C(C#N)C1c1ccc(OC)c(CSc2ccccn2)c1 (stereo unspecified)	inconclusive [falling, partial curve, poor fit]	–
COc1cc(NC(=O)COC(=O)CNC(=O)c2ccc(C)cc2)c(C)cc1[N+](=O)[O-]	active: 10 µM [quencher]	–
CCOC(=O)CSc1nc2sc3c(c2c(=O)n1CC)CCCC3	inconclusive [falling, partial curve, poor fit]	–
CCCCCC(=O)Cc1cc(O)cc(O)c1C(=O)Oc1cc(CC(=O)CCCCC)c(C(=O)O)c(OC)c1	inconclusive [quencher, partial curve]	–
COc1cccc(-n2cc(C(=O)NCCc3cccc(C)c3)c3ccccc3c2=O)c1	inconclusive [quencher, full curve]	–
CCC(C)NC(=O)COC(=O)c1csc2c1CCCC2 (stereo unspecified)	active: 0.0004 µM [quencher]	–
COc1ccc(/C=C(\C#N)c2nc(-c3ccc(Cl)c(Cl)c3)cs2)cc1OC	inconclusive [falling, partial curve, poor fit]	–
CC(=O)N1CCCc2cc(S(=O)(=O)NCc3ccc(N(C)C)cc3)ccc21	–	inactive: -1.18%
CCc1ccc(OCC(=O)N/N=C/c2cc([N+](=O)[O-])ccc2N2CCCCCC2)cc1	inconclusive [quencher, partial curve]	–
CC(C)C[C@@H](CC(=O)N[C@@H](CCC(=O)O)CC(=O)O)NC(=O)[C@@H]1CNCC[C@H]1NC(=O)C[C@@H](NC(=O)C[C@H](Cc1ccccc1)NC(=O)[C@@H]1CCCC[C@H]1N)C(C)C	–	inactive: -1.39%
COC(=O)c1ccc(=O)c2nc3/c(=C/O)c(O)cc(=O)c3[nH]c12	active: 25.1 µM [quencher]	–
C=CCNc1cc(C)oc(=O)c1C(=O)CCC	–	inactive: 0.413%
O=C(CCS(=O)(=O)c1ccc(Br)cc1)Nc1ccc(Cl)c(C(F)(F)F)c1	inconclusive [falling, partial curve, poor fit]	–

Compound	Potency	fluorescence change, negative = quenching
Cc1ccc(-c2cc(NC(=O)COc3ccc(Cl)c(C)c3)on2)cc1	inconclusive [falling, partial curve, poor fit]	–
COc1ccc(C2=CSC(/N=C/c3ccc(F)cc3)=NN2)cc1	–	inactive: -2.74%
COc1ccc(CNC(=O)c2sc3nc4c(c(C(F)(F)F)c3c2N)CCC4)cc1OC	–	inactive: -2.49%
Cc1ccc(OCC(=O)N/N=C/C=C/c2ccco2)cc1C	inconclusive [falling, full curve, poor fit]	–
O=C(NCc1cccnc1)C(=O)NCC(c1cccnc1)N1CCN(c2ccccc2F)CC1 (stereo unspecified)	active: 100 µM [quencher]	–
CCOC(=O)c1sc2ccccc2c1S(=O)(=O)N1CCN(c2cccc(OC)c2)CC1	inconclusive [falling, full curve, poor fit]	–
Nc1cc(C(=O)O)ccc1Nc1ccccc1	inconclusive [fluorescent, partial curve]	–
O=C1N(Cc2cccc(C(F)(F)F)c2)c2ccccc2S(=O)(=O)N1c1cccc(Cl)c1	–	inactive: -2.76%
Cc1cccc(N2CC(C)Cn3c2nc2c3c(=O)n(CC(=O)O)c(=O)n2C)c1 (stereo unspecified)	active: 10 µM [quencher]	–
CCN(CC)C(=O)CSc1nc2cc3c(cc2c(=O)n1CCCCCC(=O)NCCc1ccc(OC)c(OC)c1)OCO3	inconclusive [falling, full curve, poor fit]	–
COc1cc(O)ccc1C1CC(=O)Nc2c1c(=O)nc(SCc1ccccc1C)n2C (stereo unspecified)	inconclusive [falling, partial curve, poor fit]	–
O=C(Nc1cccc(-c2nc3ccccc3o2)c1)c1cc([N+](=O)[O-])ccc1N1CCOCC1	inconclusive [quencher, full curve]	–
COc1ccc(NC(=O)CN2CCCN(S(=O)(=O)c3ccc(Br)cc3)CC2)c(OC)c1	inconclusive [quencher, full curve]	–
CCC/C(=N\NC(=O)CNC(=O)c1ccc(Cl)cc1)c1ccccc1	–	inactive: -0.45%
CN(c1ccccc1)S(=O)(=O)c1cccc(NC(=O)CSc2ncn[nH]2)c1	inconclusive [quencher, full curve]	–
O=C1c2ccccc2-c2onc3ccc(NCCCn4ccnc4)c1c23	active: 44.7 µM [fluorescent]	–
Cc1coc2c(O)cc3c(c12)OC1(N2CCCCC2)C(=O)NCCCC31 (stereo unspecified)	inconclusive [falling, single point]	–
Cc1cc(N=Nc2ccccc2C(=O)O)c(C)c(C)c1O	inconclusive [quencher, full curve]	–
Cc1cc(C)c2c(=O)n(CC(=O)N3CCC(N4CCCCC4)CC3)sc2n1	–	inactive: -0.0758%
CCCc1nccn1S(=O)(=O)c1cc(Br)ccc1OC	–	inactive: -2.69%
COc1ccc(-c2nnc(Nc3ccc(CC(N)=O)cc3)c3ccccc23)cc1	active: 35.5 µM [quencher]	–
Cc1ccc(NC(=O)Cc2coc3c(C)c(C)ccc23)cc1Cl	inconclusive [falling, partial curve, poor fit]	–
